Protocol: In table 1, the logP values were determined in accordance with EEC Directive 79/831 Annex V.A8 by HPLC (High Performance Liquid Chromatography) on a reversed-phase column (C 18), using the method to described below:
temperature: 40° C.; mobile phases: 0.1% aqueous formic acid and acetonitrile; linear gradient from 10% acetonitrile to 95% acetonitrile;
If more than one LogP value is available within the same method, all the values are given and separated by “;”.
Calibration was carried out using unbranched alkan-2-ones (comprising 3 to 16 carbon atoms) with known logP values (determination of the logP values by the retention times using linear interpolation between two successive alkanones). lambda-max-values were determined using UV-spectra from 200 nm to 400 nm and the peak values of the chromatographic signals.

First: Cc1nc2c(F)c(F)ccc2nc1Nc1cccc(F)c1CN1CC(F)(F)C1 [I.11]
Second: Cc1nc2c(F)c(F)ccc2cc1Oc1cccc(F)c1CN1CC(F)(F)C1 [I.08]
The logP of the first is higher: 4.64 for the first, 2.86 for the second.

Compared with `CC1(c2ccccc2Cc2cnc3c(F)c(F)ccc3c2)COC1` [I.06], `CC1(c2ccccc2Cc2cnc3c(C(F)(F)F)cccc3c2)COC1` [I.07] is higher in logP: 3.17 for the first, 3.86 for the second.

`O=Cc1c(Br)cccc1Nc1cnc2c(F)cccc2c1` [IV.06] and `Cc1nc2c(F)c(F)ccc2cc1Nc1cccc(F)c1C#CC1COC1` [I.13] are within 0.2 log units of each other in logP: 3.70 for the first, 3.69 for the second.

First: Cc1nc2c(F)c(F)ccc2cc1Oc1cccc(F)c1S(=O)(=O)C1COC1 [I.17]
Second: Cc1nc2c(F)c(F)ccc2cc1Oc1cccc(F)c1[S+]([O-])C1COC1 (stereo not drawn) [I.16]
The logP of the first is higher: 2.59 for the first, 2.25 for the second.

Going from `Cc1nc2c(F)c(F)ccc2cc1Nc1cccc(F)c1N1CCC12COC2` [I.18] to `Cc1nc2c(F)c(F)ccc2cc1Oc1cccc(F)c1C#CC1COC1` [I.12], the logP falls from 4.02 to 3.68.

Compared with `O=S(=O)(c1c(Cl)cccc1Cl)C1COC1` [IX_D], `Clc1cccc(Cl)c1SC1COC1` [IX_A] is higher in logP: 1.71 for the first, 3.10 for the second.

First: [O-][S+](c1c(Cl)cccc1Cl)C1COC1 (stereo not drawn) [IX_B]
Second: CC1(c2ccccc2Cc2cc3ccccc3nc2O)COC1 [I.05]
The logP of the first is lower: 1.45 for the first, 2.50 for the second.

In the case of `Cc1nc2c(F)c(F)ccc2cc1Oc1cccc(F)c1CN1CC(O)C1` [I.09], the logP is reported as 1.44.

Source: patent US20210378240A1, “OXETANYLPHENOXYQUINOLINES AND ANALOGUES” (Bayer Aktiengesellschaft, priority 2018, published 2021)
